The whole screen tested about 3,200 compounds, of which about 300 (9.4%) showed activity. This is a selection; strong and weak results do not stand in their true shares.
System: A673/TR/shEF
Experiment: cell viability (LOESS-normalised, relative to median of negative controls) (log2 ratio); higher = more viable cells (less compound effect), active = hit call of the paper (over 3 MAD below the median)
Settings: treatment time: 72 h
In short: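 For three days, A673/TR/shEF Ewing sarcoma cells in 384-well plates (1,500 per well) were treated with library compounds at two or more concentrations or with DMSO controls, after doxycycline had been added or withheld 24 h beforehand to induce EWS-FLI1 shRNA knockdown. Viability was read by CellTiter-Glo luminescence on an Envision reader. The data were LOESS-corrected per plate, divided by the median of negative controls and log2-transformed.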

[1] = 0.25 µM, library screen: screen1, EWS-FLI1 expression: high (no doxycycline)
[2] = 0.25 µM, library screen: screen1, EWS-FLI1 expression: low (doxycycline-induced shRNA knockdown)
[3] = 2.5 µM, library screen: screen1, EWS-FLI1 expression: high (no doxycycline)
[4] = 2.5 µM, library screen: screen1, EWS-FLI1 expression: low (doxycycline-induced shRNA knockdown)
[5] = 0.25 µM, library screen: screen2, EWS-FLI1 expression: high (no doxycycline)
[6] = 0.25 µM, library screen: screen2, EWS-FLI1 expression: low (doxycycline-induced shRNA knockdown)
[7] = 2.5 µM, library screen: screen2, EWS-FLI1 expression: high (no doxycycline)
[8] = 2.5 µM, library screen: screen2, EWS-FLI1 expression: low (doxycycline-induced shRNA knockdown)
[9] = 0.103 µM, library screen: screen3, EWS-FLI1 expression: high (no doxycycline)
[10] = 0.103 µM, library screen: screen3, EWS-FLI1 expression: low (doxycycline-induced shRNA knockdown)
[11] = 0.308 µM, library screen: screen3, EWS-FLI1 expression: high (no doxycycline)
[12] = 0.308 µM, library screen: screen3, EWS-FLI1 expression: low (doxycycline-induced shRNA knockdown)
[13] = 0.926 µM, library screen: screen3, EWS-FLI1 expression: high (no doxycycline)
[14] = 0.926 µM, library screen: screen3, EWS-FLI1 expression: low (doxycycline-induced shRNA knockdown)
[15] = 2.8 µM, library screen: screen3, EWS-FLI1 expression: high (no doxycycline)
[16] = 2.8 µM, library screen: screen3, EWS-FLI1 expression: low (doxycycline-induced shRNA knockdown)
[17] = 8.3 µM, library screen: screen3, EWS-FLI1 expression: high (no doxycycline)
[18] = 8.3 µM, library screen: screen3, EWS-FLI1 expression: low (doxycycline-induced shRNA knockdown)
[19] = 25 µM, library screen: screen3, EWS-FLI1 expression: high (no doxycycline)
[20] = 25 µM, library screen: screen3, EWS-FLI1 expression: low (doxycycline-induced shRNA knockdown)

Measured: cell viability (log2)

COC(=O)[C@H](O)[C@H]1C(C)(C)[C@H](O)[C@@H]2CC3=C4CC(=O)O[C@@H](c5ccco5)[C@]4(C)CC[C@@H]3[C@@]1(C)C2=O
inactive: [1] 0.0837 | [2] 0.0423 | [3] 0.0416 | [4] -0.137

CCCn1c(=O)c2[nH]c(-c3ccc(OCC(=O)Nc4ccc(C#N)cc4)cc3)nc2n(CCC)c1=O
inactive: [5] 0.103 | [6] 0.0552 | [7] 0.104 | [8] 0.0865

COc1ccc2nc([S+]([O-])Cc3ncc(C)c(OC)c3C)[nH]c2c1 (stereo not drawn)
inactive: [9] 0.0555 | [10] 0.0372 | [11] -0.0266 | [12] 0.0199 | [13] -0.0106 | [14] 0.0522 | [15] -0.0439 | [16] 0.0389 | [17] -0.0449 | [18] 0.0231 | [19] -0.03 | [20] -0.014

CC(=O)OCC(=O)[C@@]1(O)CC[C@H]2[C@@H]3CC[C@@H]4C[C@H](OC(C)=O)CC[C@]4(C)[C@H]3C(=O)C[C@@]21C
inactive: [1] 0.118 | [2] 0.0343 | [3] 0.0611 | [4] -0.0696

NCC[C@H](O)C(=O)N[C@@H]1C[C@H](N)[C@@H](O[C@H]2O[C@H](CN)[C@@H](O)[C@H](O)[C@H]2O)[C@H](O)[C@H]1O[C@H]1O[C@H](CO)[C@@H](O)[C@H](N)[C@H]1O
inactive: [1] 0.0759 | [2] 0.0848 | [3] 0.168 | [4] 0.167

CC(C)C1CCC(C(=O)N[C@H](Cc2ccccc2)C(=O)O)CC1 (stereo partly drawn)
inactive: [9] 0.0543 | [10] 0.116 | [1] 0.138 | [2] 0.0814 | [11] 0.106 | [12] 0.0564 | [13] 0.127 | [14] 0.101 | [3] 0.113 | [4] 0.0941 | [15] 0.12 | [16] 0.0638 | [17] 0.0522 | [18] 0.0477 | [19] 0.0988 | [20] 0.0513

COc1ccc2c(=O)c(CC(=O)O)coc2c1
inactive: [1] 0.0632 | [2] 0.171 | [3] 0.119 | [4] 0.0778

CNc1ccccc1C(=O)N1CCc2c([nH]c3ccccc23)C1=O
inactive: [1] 0.0191 | [2] -0.0744 | [3] 0.0945 | [4] 0.0188

COCCOC(=O)C1=C(C)NC(=S)NC1c1ccccc1OC (stereo not drawn)
inactive: [1] 0.0949 | [2] 0.0382 | [3] 0.0563 | [4] 0.0651

CCCCCCCCCCCCC/C=C/[C@@H](O)[C@@H](N)CO
active: 25 µM, library screen: screen1, EWS-FLI1 expression: high (no doxycycline) -4.25 | 25 µM, library screen: screen1, EWS-FLI1 expression: low (doxycycline-induced shRNA knockdown) -4.31

COc1ccccc1OCC(O)COC(N)=O (stereo not drawn)
inactive: [9] 0.0279 | [10] 0.00385 | [1] 0.0999 | [2] 0.0902 | [11] 0.0286 | [12] 0.175 | [13] 0.0956 | [14] 0.0529 | [3] 0.13 | [4] 0.117 | [15] 0.0771 | [16] 0.0824 | [17] 0.057 | [18] 0.0934 | [19] 0.035 | [20] 0.0424

Cc1cc(N)c2ccccc2[n+]1CCCCCCCCCC[n+]1c(C)cc(N)c2ccccc21
active: [3] -1.46 | [4] -0.54 | [7] -0.865 | [8] -0.463

Nc1c2c(nc3ccccc13)CCCC2O (stereo not drawn)
inactive: [1] 0.0588 | [2] 0.0031 | [5] 0.124 | [6] 0.114 | [3] 0.149 | [4] 0.0647 | [7] 0.221 | [8] -0.00778

Nc1ccn([C@@H]2CS[C@H](CO)O2)c(=O)n1
inactive: [9] 0.125 | [10] 0.0191 | [11] 0.0768 | [12] 0.0559 | [13] 0.0245 | [14] 0.0926 | [15] 0.132 | [16] 0.0391 | [17] 0.0536 | [18] 0.0703 | [19] 0.101 | [20] 0.0951

Cn1cnnc1SCC(=O)N1c2ccccc2CCc2ccccc21
inactive: [1] 0.0935 | [2] 0.0627 | [3] 0.0921 | [4] 0.0613

NCCNC(=O)c1ccc(Cl)cc1
inactive: [1] 0.0791 | [2] 0.0423 | [5] 0.247 | [6] 0.132 | [3] 0.0823 | [4] 0.0523 | [7] 0.247 | [8] 0.168

Cn1ccc2cc3c(cc21)CCN3C(=O)Nc1cccnc1
inactive: [5] 0.134 | [6] 0.0695 | [7] 0.183 | [8] 0.0498

O=C(O)CP(=O)(O)O
inactive: [5] 0.0699 | [6] 0.158 | [7] 0.0879 | [8] 0.103

From the supplement of paper PMC6089552
